# Results are given in words; binding and its absence hold for the method and conditions named. Binding seen in cells or lysates may run through a third protein. Some results given as binding are weak or reduced against the parent protein; the word gives no strength.
# Chains of the proteins cited; added tags and fusions are not shown. Lines headed by an entry give the natural chain unless they say otherwise; changes in a name come on top. A line that says so, or that is headed by a name, gives the form on record, which may keep a tag or linker. Residues count along the entry.
# C-terminally HA-tagged full-length TANGO1 (Q5JRA6, residues 23-1907): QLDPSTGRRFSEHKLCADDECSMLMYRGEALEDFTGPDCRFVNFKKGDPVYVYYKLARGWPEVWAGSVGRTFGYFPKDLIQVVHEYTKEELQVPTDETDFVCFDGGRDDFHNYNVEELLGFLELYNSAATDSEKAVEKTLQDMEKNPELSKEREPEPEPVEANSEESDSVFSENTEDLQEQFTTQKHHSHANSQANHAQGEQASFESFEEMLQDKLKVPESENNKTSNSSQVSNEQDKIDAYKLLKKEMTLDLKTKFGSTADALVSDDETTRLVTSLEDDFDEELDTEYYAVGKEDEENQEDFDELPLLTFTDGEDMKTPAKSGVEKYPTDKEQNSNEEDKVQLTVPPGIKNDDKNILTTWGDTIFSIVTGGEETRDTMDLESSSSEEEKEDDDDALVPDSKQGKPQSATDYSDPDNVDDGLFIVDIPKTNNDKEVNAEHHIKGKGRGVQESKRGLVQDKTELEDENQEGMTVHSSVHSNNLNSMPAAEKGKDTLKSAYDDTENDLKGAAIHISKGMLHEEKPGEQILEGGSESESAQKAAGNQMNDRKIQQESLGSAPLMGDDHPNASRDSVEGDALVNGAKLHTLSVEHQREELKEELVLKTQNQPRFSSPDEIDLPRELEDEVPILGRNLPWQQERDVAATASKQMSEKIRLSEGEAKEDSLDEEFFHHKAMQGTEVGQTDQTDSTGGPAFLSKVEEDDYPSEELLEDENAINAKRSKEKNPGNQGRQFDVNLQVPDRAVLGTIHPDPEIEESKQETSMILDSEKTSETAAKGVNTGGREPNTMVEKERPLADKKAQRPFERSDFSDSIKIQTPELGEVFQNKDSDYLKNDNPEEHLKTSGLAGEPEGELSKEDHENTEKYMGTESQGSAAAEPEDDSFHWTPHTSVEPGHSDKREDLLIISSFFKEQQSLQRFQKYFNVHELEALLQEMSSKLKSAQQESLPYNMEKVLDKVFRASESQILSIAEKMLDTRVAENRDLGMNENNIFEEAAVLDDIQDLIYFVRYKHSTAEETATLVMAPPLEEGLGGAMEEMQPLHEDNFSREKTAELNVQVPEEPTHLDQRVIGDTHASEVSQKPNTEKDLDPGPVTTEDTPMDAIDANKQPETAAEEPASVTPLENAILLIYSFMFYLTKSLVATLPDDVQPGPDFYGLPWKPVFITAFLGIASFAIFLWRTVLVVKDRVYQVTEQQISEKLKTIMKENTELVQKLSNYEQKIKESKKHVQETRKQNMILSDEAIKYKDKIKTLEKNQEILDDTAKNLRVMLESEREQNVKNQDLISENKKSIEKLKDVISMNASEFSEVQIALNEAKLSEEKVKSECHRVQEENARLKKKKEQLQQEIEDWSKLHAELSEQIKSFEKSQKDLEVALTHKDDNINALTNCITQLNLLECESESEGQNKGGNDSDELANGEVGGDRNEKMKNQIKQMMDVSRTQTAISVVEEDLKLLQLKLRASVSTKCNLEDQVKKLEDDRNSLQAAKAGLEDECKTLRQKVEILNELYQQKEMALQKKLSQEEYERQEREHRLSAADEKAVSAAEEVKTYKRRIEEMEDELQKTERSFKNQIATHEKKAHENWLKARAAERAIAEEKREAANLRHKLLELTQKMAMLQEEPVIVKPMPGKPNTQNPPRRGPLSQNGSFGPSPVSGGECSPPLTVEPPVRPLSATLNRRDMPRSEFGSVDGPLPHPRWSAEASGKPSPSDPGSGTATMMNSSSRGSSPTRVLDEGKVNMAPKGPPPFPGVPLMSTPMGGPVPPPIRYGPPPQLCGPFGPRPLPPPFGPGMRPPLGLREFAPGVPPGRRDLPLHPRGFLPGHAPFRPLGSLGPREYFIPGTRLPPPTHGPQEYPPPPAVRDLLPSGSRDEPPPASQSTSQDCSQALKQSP
# TANGO1Δ1255–1295 (Q5JRA6, form named): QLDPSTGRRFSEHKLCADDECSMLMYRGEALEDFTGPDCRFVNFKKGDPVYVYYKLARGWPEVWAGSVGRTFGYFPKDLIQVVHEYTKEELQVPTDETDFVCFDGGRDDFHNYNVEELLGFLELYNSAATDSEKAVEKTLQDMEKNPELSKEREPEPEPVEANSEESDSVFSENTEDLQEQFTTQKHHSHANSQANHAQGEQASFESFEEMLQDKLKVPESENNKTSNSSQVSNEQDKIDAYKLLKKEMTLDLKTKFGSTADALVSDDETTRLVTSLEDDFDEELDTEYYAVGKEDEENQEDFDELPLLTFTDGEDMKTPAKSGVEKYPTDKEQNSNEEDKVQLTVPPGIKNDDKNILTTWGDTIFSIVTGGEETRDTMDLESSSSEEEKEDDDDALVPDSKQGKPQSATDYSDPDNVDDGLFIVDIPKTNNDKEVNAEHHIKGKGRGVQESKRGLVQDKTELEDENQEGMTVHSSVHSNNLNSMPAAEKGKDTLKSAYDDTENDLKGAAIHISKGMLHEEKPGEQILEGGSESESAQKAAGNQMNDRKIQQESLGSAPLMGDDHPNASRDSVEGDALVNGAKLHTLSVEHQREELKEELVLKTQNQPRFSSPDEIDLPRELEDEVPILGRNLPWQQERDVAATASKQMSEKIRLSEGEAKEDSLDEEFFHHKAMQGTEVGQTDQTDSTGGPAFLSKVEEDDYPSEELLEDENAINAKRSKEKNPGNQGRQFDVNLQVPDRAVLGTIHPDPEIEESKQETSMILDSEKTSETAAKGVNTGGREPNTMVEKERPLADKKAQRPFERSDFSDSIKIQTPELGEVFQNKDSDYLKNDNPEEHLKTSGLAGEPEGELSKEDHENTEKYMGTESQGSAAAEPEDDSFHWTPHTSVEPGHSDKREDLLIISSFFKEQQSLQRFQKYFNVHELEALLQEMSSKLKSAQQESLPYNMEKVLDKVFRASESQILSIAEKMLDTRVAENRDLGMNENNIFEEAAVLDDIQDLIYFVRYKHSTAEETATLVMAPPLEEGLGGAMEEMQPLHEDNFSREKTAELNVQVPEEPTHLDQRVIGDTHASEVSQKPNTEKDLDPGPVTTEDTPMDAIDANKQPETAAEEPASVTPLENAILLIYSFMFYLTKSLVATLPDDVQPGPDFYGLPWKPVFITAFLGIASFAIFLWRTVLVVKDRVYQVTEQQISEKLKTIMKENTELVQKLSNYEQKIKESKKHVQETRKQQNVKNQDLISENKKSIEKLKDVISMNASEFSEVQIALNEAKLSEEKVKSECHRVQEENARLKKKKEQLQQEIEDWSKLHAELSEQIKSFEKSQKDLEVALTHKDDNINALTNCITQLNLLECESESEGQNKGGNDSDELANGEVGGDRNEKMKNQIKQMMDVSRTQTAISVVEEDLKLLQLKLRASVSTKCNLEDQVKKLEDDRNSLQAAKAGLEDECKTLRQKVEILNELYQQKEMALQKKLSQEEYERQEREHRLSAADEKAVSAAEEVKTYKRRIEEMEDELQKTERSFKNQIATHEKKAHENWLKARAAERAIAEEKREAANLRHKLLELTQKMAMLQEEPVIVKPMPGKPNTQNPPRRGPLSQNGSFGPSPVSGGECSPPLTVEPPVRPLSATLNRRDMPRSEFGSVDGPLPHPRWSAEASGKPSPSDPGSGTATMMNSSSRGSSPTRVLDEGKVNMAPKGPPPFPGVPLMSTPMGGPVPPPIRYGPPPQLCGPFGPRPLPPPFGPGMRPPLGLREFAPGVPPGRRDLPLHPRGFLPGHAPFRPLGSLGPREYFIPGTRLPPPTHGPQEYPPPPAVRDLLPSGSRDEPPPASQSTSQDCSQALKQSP
# TANGO1Δ1296–1336 (Q5JRA6, form named): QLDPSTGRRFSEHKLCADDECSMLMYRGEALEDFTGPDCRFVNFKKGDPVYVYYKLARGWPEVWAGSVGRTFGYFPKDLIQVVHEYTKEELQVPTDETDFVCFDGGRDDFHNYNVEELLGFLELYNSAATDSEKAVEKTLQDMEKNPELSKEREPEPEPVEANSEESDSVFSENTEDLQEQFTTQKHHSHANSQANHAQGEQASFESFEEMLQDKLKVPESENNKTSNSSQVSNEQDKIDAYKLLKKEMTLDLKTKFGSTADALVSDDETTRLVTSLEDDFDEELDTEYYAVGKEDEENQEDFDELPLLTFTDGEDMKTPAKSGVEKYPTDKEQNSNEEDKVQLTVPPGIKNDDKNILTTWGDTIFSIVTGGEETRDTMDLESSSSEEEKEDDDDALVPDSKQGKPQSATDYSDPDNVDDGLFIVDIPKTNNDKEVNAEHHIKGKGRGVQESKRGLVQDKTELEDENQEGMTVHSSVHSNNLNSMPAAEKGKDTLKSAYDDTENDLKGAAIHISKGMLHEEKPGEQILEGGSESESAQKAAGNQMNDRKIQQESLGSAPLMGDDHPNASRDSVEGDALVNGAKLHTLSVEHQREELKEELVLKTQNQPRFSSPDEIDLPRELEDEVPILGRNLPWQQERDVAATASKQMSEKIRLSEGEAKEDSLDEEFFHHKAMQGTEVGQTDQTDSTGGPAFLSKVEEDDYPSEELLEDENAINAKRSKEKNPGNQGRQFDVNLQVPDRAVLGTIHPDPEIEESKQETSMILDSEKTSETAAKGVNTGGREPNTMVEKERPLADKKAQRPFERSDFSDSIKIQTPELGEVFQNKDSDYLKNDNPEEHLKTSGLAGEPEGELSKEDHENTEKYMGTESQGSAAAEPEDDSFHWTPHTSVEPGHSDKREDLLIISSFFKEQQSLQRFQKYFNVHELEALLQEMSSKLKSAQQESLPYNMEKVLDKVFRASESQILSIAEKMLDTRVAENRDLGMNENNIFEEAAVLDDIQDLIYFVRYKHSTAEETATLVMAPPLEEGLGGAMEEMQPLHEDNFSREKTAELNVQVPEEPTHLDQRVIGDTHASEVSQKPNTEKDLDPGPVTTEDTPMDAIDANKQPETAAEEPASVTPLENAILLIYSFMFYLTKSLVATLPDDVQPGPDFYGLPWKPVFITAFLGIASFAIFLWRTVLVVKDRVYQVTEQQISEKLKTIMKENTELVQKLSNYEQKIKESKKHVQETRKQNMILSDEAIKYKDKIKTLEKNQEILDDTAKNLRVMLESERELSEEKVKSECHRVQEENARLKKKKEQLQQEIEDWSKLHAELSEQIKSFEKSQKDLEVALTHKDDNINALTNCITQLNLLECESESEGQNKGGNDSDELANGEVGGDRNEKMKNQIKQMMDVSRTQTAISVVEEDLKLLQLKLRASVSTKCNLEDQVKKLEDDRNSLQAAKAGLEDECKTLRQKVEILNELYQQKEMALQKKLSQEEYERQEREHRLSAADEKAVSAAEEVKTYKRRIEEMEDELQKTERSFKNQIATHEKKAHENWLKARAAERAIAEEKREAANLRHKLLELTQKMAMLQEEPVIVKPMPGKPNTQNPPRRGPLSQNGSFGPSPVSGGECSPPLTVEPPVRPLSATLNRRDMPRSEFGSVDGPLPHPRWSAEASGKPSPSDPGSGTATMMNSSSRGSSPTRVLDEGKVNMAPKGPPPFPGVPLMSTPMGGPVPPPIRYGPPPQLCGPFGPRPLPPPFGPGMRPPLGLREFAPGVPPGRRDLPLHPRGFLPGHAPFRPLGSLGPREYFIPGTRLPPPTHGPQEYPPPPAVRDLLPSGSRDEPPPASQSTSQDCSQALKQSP
# UniProt Q6NUQ1: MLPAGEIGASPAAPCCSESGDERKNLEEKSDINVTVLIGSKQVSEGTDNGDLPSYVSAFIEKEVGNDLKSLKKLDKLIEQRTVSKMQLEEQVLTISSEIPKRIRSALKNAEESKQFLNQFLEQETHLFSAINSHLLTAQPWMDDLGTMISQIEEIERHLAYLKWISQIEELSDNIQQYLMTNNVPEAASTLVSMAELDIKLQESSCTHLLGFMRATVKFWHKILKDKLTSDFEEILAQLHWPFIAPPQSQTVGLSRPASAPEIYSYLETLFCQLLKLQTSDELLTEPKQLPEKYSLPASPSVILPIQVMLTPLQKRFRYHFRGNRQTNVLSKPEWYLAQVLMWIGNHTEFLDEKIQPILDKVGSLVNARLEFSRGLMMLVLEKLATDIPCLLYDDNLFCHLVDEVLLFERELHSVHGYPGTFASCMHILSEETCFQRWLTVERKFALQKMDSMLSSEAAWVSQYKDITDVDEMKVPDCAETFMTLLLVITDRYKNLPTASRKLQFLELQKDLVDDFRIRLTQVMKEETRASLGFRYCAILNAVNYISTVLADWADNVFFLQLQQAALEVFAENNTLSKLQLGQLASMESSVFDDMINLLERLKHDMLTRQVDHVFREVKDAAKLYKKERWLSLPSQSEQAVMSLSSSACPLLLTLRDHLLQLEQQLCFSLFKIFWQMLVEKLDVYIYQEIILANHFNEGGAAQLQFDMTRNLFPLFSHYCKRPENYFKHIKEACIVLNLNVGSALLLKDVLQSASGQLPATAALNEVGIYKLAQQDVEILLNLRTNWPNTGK
# B1: ZW10 (protein, UniProt O43264 1-779)
# chain: MASFVTEVLAHSGRLEKEDLGTRISRLTRRVEEIKGEVCNMISKKYSEFLPSMQSAQGLITQVDKLSEDIDLLKSRIESEVRRDLHVSTGEFTDLKQQLERDSVVLSLLKQLQEFSTAIEEYNCALTEKKYVTGAQRLEEAQKCLKLLKSRKCFDLKILKSLSMELTIQKQNILYHLGEEWQKLIVWKFPPSKDTSSLESYLQTELHLYTEQSHKEEKTPMPPISSVLLAFSVLGELHSKLKSFGQMLLKYILRPLASCPSLHAVIESQPNIVIIRFESIMTNLEYPSPSEVFTKIRLVLEVLQKQLLDLPLDTDLENEKTSTVPLAEMLGDMIWEDLSECLIKNCLVYSIPTNSSKLQQYEEIIQSTEEFENALKEMRFLKGDTTDLLKYARNINSHFANKKCQDVIVAARNLMTSEIHNTVKIIPDSKINVPELPTPDEDNKLEVQKVSNTQYHEVMNLEPENTLDQHSFSLPTCRISESVKKLMELAYQTLLEATTSSDQCAVQLFYSVRNIFHLFHDVVPTYHKENLQKLPQLAAIHHNNCMYIAHHLLTLGHQFRLRLAPILCDGTATFVDLVPGFRRLGTECFLAQMRAQKGELLERLSSARNFSNMDDEENYSAASKAVRQVLHQLKRLGIVWQDVLPVNIYCKAMGTLLNTAISEVIGKITALEDISTEDGDRLYSLCKTVMDEGPQVFAPLSEESKNKKYQEEVPVYVPKWMPFKELMMMLQASLQEIGDRWADGKGPLAAAFSSSEVKALIRALFQNTERRAAALAKIK
# Assays:
# [1] = target: C-terminally HA-tagged full-length TANGO1 (human) (UniProt Q5JRA6); assay: co-IP; HA-tagged TANGO1 constructs transfected in HEK293T cells and immunoprecipitated; samples probed for NBAS, RINT1, cTAGE5 and ZW10; lysis in 50 mM Tris-HCl pH 7.4, 150 mM NaCl, 1 mM EDTA, 2% CHAPS; washes TBS/0.5% CHAPS
# TANGO1Δ1255–1295 (human) [2] = target: TANGO1Δ1255–1295 (human) (UniProt Q5JRA6); assay: as above
# TANGO1Δ1296–1336 (human) [3] = target: TANGO1Δ1296–1336 (human) (UniProt Q5JRA6); assay: as above
# [4] = target: C-terminally HA-tagged full-length TANGO1 (human) (UniProt Q5JRA6); assay: co-IP; HEK293T cells with TANGO1-FLAG and the indicated HA-tagged TANGO1 construct; lysates and immunoprecipitated samples probed for HA, FLAG and cTAGE5; lysis in 50 mM Tris-HCl pH 7.4, 150 mM NaCl, 1 mM EDTA, 2% CHAPS; washes TBS/0.5% CHAPS
# TANGO1Δ1255–1295 (human) [5] = target: TANGO1Δ1255–1295 (human) (UniProt Q5JRA6); assay: as above
# TANGO1Δ1296–1336 (human) [6] = target: TANGO1Δ1296–1336 (human) (UniProt Q5JRA6); assay: as above
Molecule,binding [1],binding (TANGO1Δ1255–1295 (human) [2]),binding (TANGO1Δ1296–1336 (human) [3]),binding [4],binding (TANGO1Δ1255–1295 (human) [5]),binding (TANGO1Δ1296–1336 (human) [6])
NBAS (from UniProt A2RRP1 1-2371),binds,no binding,binds,,,
RINT1 (from UniProt Q6NUQ1 1-792),binds,no binding,binds,,,
TANGO1-FLAG (from UniProt Q5JRA6 23-1907),,,,binds,no binding,binds
B1,binds,no binding,binds,,,

# Source: publication PMC5851698
